SMILES strings stand for the structures. Hit rate of the full screen: of about 39,000 compounds, about 220 (0.56%) showed activity. The list shows a part of the results.
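Note: static incubation at 37 °C against the wild-type strain, values averaged over two biological replicates.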

The test has as its system Escherichia coli K-12 BW25113. Nature of the test: relative growth (OD600 normalised to plate interquartile mean) (fraction); higher = less growth inhibition, active = 0.2 or less. Conditions: 50 µM; LB; incubation time: overnight (16-24 h).
For the compound `C[C@H]1CN([C@@H](C)CO)C(=O)Cc2cc(NS(C)(=O)=O)ccc2O[C@@H]1CN(C)S(=O)(=O)c1ccc(F)cc1`, the relative growth was inactive: 1.03.

Turning to `COc1ccc(S(=O)(=O)Nc2ccc3c(c2)C(=O)N([C@@H](C)CO)C[C@@H](C)[C@H](CN(C)Cc2ccc(C(=O)O)cc2)OCCCC[C@@H](C)O3)cc1`, the relative growth was inactive: 0.984.

`NCC[C@@H]1CC[C@@H](NC(=O)Nc2ccc(F)cc2)[C@@H](CO)O1`: the relative growth is inactive: 0.984.

For the compound `CCSc1ncnc(N)n1`, the relative growth is inactive: 1.03.

Take `C[C@@H]1CN([C@H](C)CO)S(=O)(=O)c2ccc(-c3ccc(F)cc3)cc2O[C@@H]1CN(C)C(=O)C1CCOCC1`: the relative growth was inactive: 1.01.

Take `C=CC1(C)CC(=O)C2(O)C(C)(O1)C(O)C(O)C1C(C)(C)CCC(O)C12C` (stereo unspecified): the relative growth was inactive: 0.925.

Regarding `Cc1coc2c1C(=O)C(=O)c1c-2ccc2c1CCCC2(C)C`, the relative growth was inactive: 1.12.

Take `NC(CO)C(=O)O` (stereo unspecified): the relative growth is inactive: 1.08.

As to `COc1ccc(NC(=O)N(C)C[C@@H]2Oc3ncc(C#CC(C)C)cc3C(=O)N([C@@H](C)CO)C[C@@H]2C)cc1`, the relative growth is inactive: 0.977.

With `O=C(/C=C/c1ccc(O)c(O)c1)O[C@H]1[C@H](O)C[C@](O)(C(=O)O)C[C@H]1O`, the relative growth was inactive: 1.02.

Turning to `C[C@@H]1CN([C@@H](C)CO)C(=O)c2cccc(NC(=O)C3CCOCC3)c2O[C@@H]1CN(C)S(=O)(=O)c1ccc(F)cc1`, the relative growth was inactive: 0.993.

Turning to `C[C@H](NC(=O)N(C)C[C@H]1OCc2ccccc2-c2c(n(C)c3ccccc23)C(=O)N([C@@H](C)CO)C[C@H]1C)c1ccccc1`, the relative growth was inactive: 0.998.

In the case of `C[C@@H]1CN([C@@H](C)CO)C(=O)Cc2cc(NS(C)(=O)=O)ccc2O[C@@H]1CN(C)Cc1ccc2c(c1)OCO2`, the relative growth is inactive: 1.01.

With `Cc1ccc(S(=O)(=O)Nc2ccc3c(c2)C(=O)N([C@H](C)CO)C[C@H](C)[C@@H](CN(C)C(=O)NC(C)C)O3)cc1`, the relative growth was inactive: 0.995.

As to `CO[C@H](CN(C)C(=O)c1ccc2c(c1)OCO2)[C@H](C)CN([C@H](C)CO)S(=O)(=O)c1ccc(F)cc1`, the relative growth is inactive: 1.04.

Take `CC(C)(C)NC(=O)N1CCC(CN)CC1`: the relative growth was inactive: 1.01.

Regarding `Cc1noc(C)c1NC(=O)Nc1ccc2c(c1)C(=O)N([C@H](C)CO)C[C@H](C)[C@H](CN(C)C(=O)C1CCCCC1)OCCCC[C@H](C)O2`, the relative growth is inactive: 0.995.

`Cc1noc(C)c1NC(=O)N(C)C[C@@H]1OCCCC[C@H](C)Oc2ccc(NC(=O)Nc3ccc4c(c3)OCO4)cc2C(=O)N([C@H](C)CO)C[C@@H]1C`: the relative growth is inactive: 1.

For the compound `Cc1ccc(S(=O)(=O)Nc2ccc3c(c2)CC(=O)N([C@H](C)CO)C[C@H](C)[C@@H](CN(C)S(=O)(=O)c2cn(C)cn2)O3)cc1`, the relative growth was inactive: 1.

As for `C[C@@H]1CCCCO[C@H](CN(C)Cc2ccc3c(c2)OCO3)[C@H](C)CN([C@H](C)CO)C(=O)c2cc(NC(=O)NC3CCCCC3)ccc2O1`, the relative growth was inactive: 1.02.

In the case of `CCN(CC)CCS(=O)(=O)[C@@H]1CCN2C(=O)c3coc(n3)CC(=O)C[C@H](O)/C=C(C)/C=C\CNC(=O)/C=C/[C@@H](C)[C@H](C(C)C)OC(=O)[C@@H]12`, the relative growth was inactive: 0.972.

In the case of `C[C@H]1CN([C@@H](C)CO)C(=O)c2cc(-c3cccc(C(=O)N(C)C)c3)cnc2O[C@@H]1CN(C)S(=O)(=O)c1cccc(F)c1`, the relative growth is inactive: 0.992.

For the compound `C[C@H](CO)N1C[C@H](C)[C@H](CN(C)Cc2ccncc2)OCCCC[C@H](C)Oc2ccc(NC(=O)Nc3ccc(F)cc3)cc2C1=O`, the relative growth was inactive: 0.997.

Consider `NCCNc1cccc2ccccc12`, for which the relative growth was inactive: 0.949.

For the compound `C[C@@H]1CCCCO[C@@H](CN(C)C(=O)NC2CCCCC2)[C@H](C)CN([C@H](C)CO)C(=O)c2cc(NC(=O)c3ccncc3)ccc2O1`, the relative growth was inactive: 0.981.

Regarding `O=C(C[C@@H]1CC[C@H](NC(=O)Cc2ccccn2)[C@@H](CO)O1)NCCCN1CCOCC1`, the relative growth is inactive: 0.994.

As for `Cc1ccc(S(=O)(=O)N(C)C[C@@H]2Oc3c(NS(=O)(=O)c4ccccc4)cccc3C(=O)N([C@@H](C)CO)C[C@H]2C)cc1`, the relative growth was inactive: 0.959.

As for `CC(C)NC(=O)Nc1ccc2c(c1)C(=O)N([C@H](C)CO)C[C@H](C)[C@H](CN(C)C(=O)C1CCCCC1)OCCCC[C@@H](C)O2`, the relative growth was inactive: 1.02.

Consider `C[C@H]1CCCCO[C@@H](CN(C)C(=O)Nc2cccc3ccccc23)[C@@H](C)CN([C@@H](C)CO)C(=O)c2cc(NS(=O)(=O)c3cccs3)ccc2O1`, for which the relative growth was inactive: 0.995.

On to `C[C@@H]1CN([C@H](C)CO)C(=O)c2cccc(NC(=O)Nc3ccc(F)cc3)c2O[C@H]1CN(C)S(=O)(=O)c1cn(C)cn1`, for which the relative growth was inactive: 0.969.

Consider `C[C@H](CO)N1C[C@H](C)[C@@H](CN(C)Cc2ccc(Oc3ccccc3)cc2)Oc2ccc(NC(=O)C3CC3)cc2C1=O`, for which the relative growth is inactive: 0.915.

Consider `N=C(NO)c1ccccc1N`, for which the relative growth was inactive: 1.02.

With `COc1ccc(CN(C)C[C@@H]2OCCCC[C@@H](C)Oc3ccc(NS(=O)(=O)c4ccc(Cl)cc4)cc3C(=O)N([C@@H](C)CO)C[C@H]2C)cc1`, the relative growth is inactive: 1.01.

For the compound `C[C@H](CO)N1C[C@H](C)[C@@H](CN(C)S(=O)(=O)c2cccc(F)c2)Oc2ncc(C#CC3(O)CCCC3)cc2C1=O`, the relative growth is inactive: 1.01.

Consider `Cc1ccccc1-c1ccc2c(c1)O[C@H](CN(C)C(=O)Nc1ccc(C(F)(F)F)cc1)[C@@H](C)CN([C@@H](C)CO)S2(=O)=O`, for which the relative growth was inactive: 0.981.

As for `COc1ccc(NC(=O)Nc2ccc3c(c2)C(=O)N([C@@H](C)CO)C[C@H](C)[C@H](CN(C)Cc2ccc(C(=O)O)cc2)OCCCC[C@H](C)O3)cc1`, the relative growth is inactive: 1.

As to `CN1CCN(C(=O)C[C@@H]2C=C[C@H](NC(=O)Nc3ccccc3F)[C@@H](CO)O2)CC1`, the relative growth is inactive: 1.01.

On to `C=CCN(CC=C)S(=O)(=O)c1nnc[nH]1`, for which the relative growth is inactive: 0.972.

Turning to `C[C@H]1CN([C@@H](C)CO)C(=O)c2cc(NC(=O)Cn3cnnn3)ccc2O[C@@H]1CN(C)S(=O)(=O)c1cccs1`, the relative growth was inactive: 0.984.

Turning to `CCCCCC[C@@H](O)CC=CCCCCCCCC(=O)O`, the relative growth is inactive: 0.998.

Regarding `C[C@@H]1CCCCO[C@@H](CN(C)S(=O)(=O)c2ccc(F)cc2)[C@H](C)CN([C@H](C)CO)C(=O)c2cc(NC(=O)CCC(F)(F)F)ccc2O1`, the relative growth was inactive: 0.969.

Regarding `COc1cccc(-c2ccc3c(c2)O[C@H](CN(C)C(=O)C2CC2)[C@H](C)CN([C@H](C)CO)S3(=O)=O)c1`, the relative growth is inactive: 0.991.

For the compound `C[C@H]1CN([C@@H](C)CO)C(=O)Cc2cc(NC(=O)Cn3cnnn3)ccc2O[C@@H]1CN(C)Cc1ccc(Cl)c(Cl)c1`, the relative growth is inactive: 0.98.

As to `Cc1ccc(S(=O)(=O)Nc2ccc3c(c2)C(=O)N([C@@H](C)CO)C[C@H](C)[C@@H](CN(C)C(=O)CCC(F)(F)F)OCCCC[C@@H](C)O3)cc1`, the relative growth is inactive: 1.03.

In the case of `CCCNC(=O)C[C@H]1CC[C@H]2[C@H](COc3ccc(NS(=O)(=O)c4ccccc4C)cc3C(=O)N2C)O1`, the relative growth was inactive: 0.998.

Consider `CC(C)NC(=O)N(C)C[C@H]1Oc2ccc(NC(=O)c3ccncc3)cc2CC(=O)N([C@H](C)CO)C[C@H]1C`, for which the relative growth was inactive: 0.961.

`C[C@@H]1CCCCO[C@H](CN(C)S(=O)(=O)c2cccs2)[C@H](C)CN([C@H](C)CO)C(=O)c2cc(NC(=O)Nc3ccc(F)cc3)ccc2O1`: the relative growth was inactive: 1.03.

`C[C@@H]1CN([C@@H](C)CO)C(=O)c2cccc(NC(=O)C3CCCCC3)c2O[C@H]1CN(C)Cc1ccc(-c2ccccc2)cc1`: the relative growth is inactive: 1.04.

With `COc1cccc(CN(C)C[C@@H]2OCc3ccccc3-c3c(n(C)c4ccccc34)C(=O)N([C@H](C)CO)C[C@H]2C)c1`, the relative growth is inactive: 1.

With `C[C@H](CO)N1C[C@H](C)[C@H](CN(C)C(=O)Nc2ccc3c(c2)OCO3)Oc2ccc(NS(C)(=O)=O)cc2CC1=O`, the relative growth was inactive: 0.983.

For `CC(C)NC(=O)N(C)C[C@@H]1OCCCC[C@@H](C)Oc2ccc(NS(=O)(=O)c3cn(C)cn3)cc2C(=O)N([C@@H](C)CO)C[C@H]1C`, the relative growth was inactive: 0.993.

Turning to `C[C@@H]1CN([C@@H](C)CO)C(=O)c2cc(NC(=O)Cc3ccccc3)ccc2O[C@@H]1CN(C)Cc1ccc(C(=O)Nc2ccccc2N)cc1`, the relative growth is inactive: 1.02.

`C[C@@H]1CN([C@@H](C)CO)C(=O)c2cc(NS(C)(=O)=O)ccc2O[C@@H]1CN(C)C(=O)NC1CCCCC1`: the relative growth is inactive: 0.987.

With `CO[C@@H]1CN(C)C(=O)c2ccc(NC(C)=O)cc2OC[C@H](C)N(S(=O)(=O)c2cn(C)cn2)C[C@H]1C`, the relative growth is inactive: 0.999.

As to `C[C@H]1CN([C@@H](C)CO)S(=O)(=O)c2ccc(-c3ccc(C(=O)N(C)C)cc3)cc2O[C@@H]1CN(C)C(=O)C1CCOCC1`, the relative growth was inactive: 0.974.

For `NC[C@H](c1ccco1)N1CCN(c2ccc(F)cc2)CC1`, the relative growth was inactive: 0.999.

Turning to `C[C@H](CO)N1C[C@H](C)[C@H](CN(C)S(C)(=O)=O)Oc2ccc(NC(=O)Nc3ccc(F)cc3)cc2C1=O`, the relative growth is inactive: 0.978.

`CN1CCN(C(=O)C[C@H]2C=C[C@@H](NC(=O)Nc3ccccc3F)[C@H](CO)O2)CC1`: the relative growth is inactive: 0.994.

`C[C@@H]1CCCCO[C@@H](CN(C)C(=O)C2CCCCC2)[C@@H](C)CN([C@@H](C)CO)C(=O)c2cc(NS(=O)(=O)c3ccccc3)ccc2O1`: the relative growth was inactive: 0.998.

`C[C@@H]1CCCCO[C@@H](CN(C)C(=O)c2ccncc2)[C@@H](C)CN([C@@H](C)CO)C(=O)c2cc(NC(=O)NC3CCCCC3)ccc2O1`: the relative growth is inactive: 1.02.

Turning to `COc1ccc(NC(=O)Nc2ccc3c(c2)C(=O)N([C@@H](C)CO)C[C@@H](C)[C@@H](CN(C)S(=O)(=O)c2ccccc2)OCCCC[C@@H](C)O3)cc1`, the relative growth is inactive: 1.01.

(Values after the supplement of paper PMC9446081.)
